The target in this experiment is T1, NMDA receptor subunit GluN1 (rat (endogenous in hippocampus), UniProt P35439).
T1 construct: NMDA receptor subunit GluN1, rat, endogenous in hippocampus; Detected by blot as a subunit of native NMDARs; source: endogenous, rat hippocampal homogenate (slices or cultured hippocampal neurons)
Briefly: co-IP; total rat hippocampal lysates with primary antibody and Protein A/G agarose, 4°C; buffer pH 7.4, 0.05 mol/L HEPES, 0.15 mol/L NaCl, 0.5% NP-40, 1% Triton X-100; non-immune IgG as control; slices untreated or treated with PMA (0.5 umol/L, 10 min) and/or AIP (1 umol/L). The conditions noted are these: partners not purified.

B1: myosin Va (natural protein)
chain: not shown
notes: myosin Va, rat, endogenous in hippocampus; also called MyoVa; source: endogenous, rat hippocampal homogenate
As to B1, the “co-IP signal with PMA, normalised to control (IP with anti-GluN1)” value was 1.52 fold of control.
